Source: article PMC6919601, “Identification of Plasmodium dipeptidyl aminopeptidase allosteric inhibitors by high throughput screening” (PLoS ONE, 2019)
In all, about 110,000 compounds went through this assay and about 230 (0.21%) showed an effect of 50% or more. The list shows a part of the results.

target: DPAP1 (Plasmodium falciparum, UniProt Q8IIJ9); assay: primary screen, percent inhibition; read by cleavage of a fluorogenic dipeptide substrate; higher = more effect of the substance; parameters: species or system P. falciparum D10 trophozoite lysates; single well
Sequence (Q8IIJ9 whole entry, looked up): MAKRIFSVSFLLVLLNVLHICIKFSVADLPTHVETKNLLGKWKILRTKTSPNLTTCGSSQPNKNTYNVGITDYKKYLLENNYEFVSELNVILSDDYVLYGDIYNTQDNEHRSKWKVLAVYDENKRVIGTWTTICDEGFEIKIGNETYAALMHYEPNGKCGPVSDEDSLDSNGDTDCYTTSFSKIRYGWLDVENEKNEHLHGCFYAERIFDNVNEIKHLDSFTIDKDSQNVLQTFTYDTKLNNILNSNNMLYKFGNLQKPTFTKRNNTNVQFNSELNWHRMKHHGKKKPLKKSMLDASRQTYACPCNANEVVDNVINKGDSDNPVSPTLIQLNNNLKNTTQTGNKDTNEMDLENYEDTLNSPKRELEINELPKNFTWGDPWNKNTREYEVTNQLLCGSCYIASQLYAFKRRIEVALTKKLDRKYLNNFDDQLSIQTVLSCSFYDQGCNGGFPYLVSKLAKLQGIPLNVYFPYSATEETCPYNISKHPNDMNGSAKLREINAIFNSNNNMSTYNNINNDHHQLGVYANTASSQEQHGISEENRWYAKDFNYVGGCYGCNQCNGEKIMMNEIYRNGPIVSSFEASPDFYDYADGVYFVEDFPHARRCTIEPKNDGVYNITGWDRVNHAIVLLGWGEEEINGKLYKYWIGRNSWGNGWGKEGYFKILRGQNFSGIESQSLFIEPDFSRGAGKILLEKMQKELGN
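Also: 30 min substrate incubation versus DMSO and 10 µM JCP410 controls.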

Compared with `CC(=O)N1C(=O)C2(Nc3ccccc3N2)c2ccccc21`, `CCOc1ccccc1NC(=O)c1ccccc1Br` is higher in “% Inhibition @ 10 uM” value: -0.637% for the first, 1.35% for the second.

Compared with `CO/N=C/c1c(Sc2ccc(C)cc2)nc2ccccn2c1=O`, `Cc1cc(C)nc(NC(=O)Nc2ccc3ccccc3c2)n1` is higher in “% Inhibition @ 10 uM” value: 2.09% for the first, 7.03% for the second.

Going from `CC(=O)Nc1ccc(S(=O)(=O)Nc2ccc(Cl)c(Cl)c2)cc1` to `CN(C)C(CNS(=O)(=O)c1ccc(Cl)cc1)c1ccccc1` (centres unmarked), the “% Inhibition @ 10 uM” value rises from -4.61% to -4.29%.

Compared with `Cn1cc(CN2CCc3ccccc3C2)c2ccccc21`, `O=S(=O)(c1ccccc1F)N1CCN(Cc2ccccc2)CC1` is higher in “% Inhibition @ 10 uM” value: -3.78% for the first, -1.61% for the second.

Going from `Cc1cc(S(=O)(=O)c2cc3cc(C(C)(C)C)cc(O)c3oc2=O)ccc1F` to `CC(C)(C)NC(=O)Cn1cc(S(=O)(=O)Cc2cccc(Cl)c2)c2ccccc21`, the “% Inhibition @ 10 uM” value falls from 2.12% to -3.5%.

First: CCCCS(=O)c1c(O)nc2ccccc2c1O (centres unmarked)
Second: CC(C)NC(=O)Cn1ncc2c3ccccc3nc-2c1O
The “% Inhibition @ 10 uM” value of the first is lower: -3.77% for the first, -0.723% for the second.

Compared with `COc1cc2c(cc1OC)CN(C(=O)CSc1nnc3scc(-c4ccccc4)n13)CC2`, `Cc1ccsc1CCNC(=O)CCc1nnc2n(CCc3ccccc3)c(=O)c3ccccc3n12` is higher in “% Inhibition @ 10 uM” value: -6.55% for the first, -1.8% for the second.

Compared with `CCC(C(=O)Nc1nccs1)c1ccccc1` (centres unmarked), `CCc1nnc(NC(=O)C2(C)COC(c3ccccc3)OC2)s1` (centres unmarked) is lower in “% Inhibition @ 10 uM” value: 2.55% for the first, -3.34% for the second.

Compared with `CCN(CC)CCCNCc1cccc(Br)c1`, `CCOc1ccc(CCCN=C(N)N)cc1Cl` is higher in “% Inhibition @ 10 uM” value: 2.05% for the first, 2.66% for the second.

Going from `C=CCSC1=C(C#N)C(c2ccc(C)cc2)CC(=O)N1` (centres unmarked) to `CC(C)(C)c1ccc(/C=C2\NC(=S)NC2=O)cc1`, the “% Inhibition @ 10 uM” value rises from 0.317% to 2.05%.

Compared with `CC(C)COc1ccc(C(=O)Nc2sc3c(c2C(=O)O)CC(C)(C)OC3)cc1`, `COc1ccc(C(=O)Nc2cccc(NC(C)=O)c2)cc1` is higher in “% Inhibition @ 10 uM” value: -4.72% for the first, -3.39% for the second.

First: O=C(Cn1cnc2sc3c(c2c1=O)CCCC3)Nc1ccc(Br)cc1
Second: CC(C)(C)N1C(=O)c2ccc(C(=O)Nc3ccc(C(=O)O)cc3)cc2C1=O
The “% Inhibition @ 10 uM” value of the first is lower: -4.39% for the first, 3.8% for the second.

First: CC(=O)Nc1nonc1N1C(=N)S/C(=C/c2ccc(-c3cccc(C(F)(F)F)c3)o2)C1=O
Second: CC(=O)c1nn(-c2ccc(OC(F)(F)F)cc2)nc1N1CCn2cnnc2C1
The “% Inhibition @ 10 uM” value of the first is lower: -3.41% for the first, 0.635% for the second.

First: COCCCNC(=O)CCn1c(=O)c2cccn2c2cccnc21
Second: CCCCNS(=O)(=O)c1ccc2nc(-c3cccnc3)cc(C(=O)NCCCOC)c2c1
The “% Inhibition @ 10 uM” value of the first is lower: -4.21% for the first, -3.21% for the second.

First: Clc1ccc(-c2noc3ncnc(NCC4CCCO4)c23)cc1 (centres unmarked)
Second: Cc1onc(-c2ccccc2)c1C(=O)O
The “% Inhibition @ 10 uM” value of the first is higher: 5.77% for the first, 0.878% for the second.

First: COc1ccccc1Cc1nn[nH]n1
Second: Cc1cc(C)n(-c2nc(-c3ccccc3)cc(-c3ccc(F)cc3)n2)n1
The “% Inhibition @ 10 uM” value of the first is lower: -0.902% for the first, 0.215% for the second.

First: CCC[C@H](NC(=O)C1(NC(=O)c2ccc(OC(F)(F)F)cc2)CCCCC1)C(=O)c1nnc(-c2ccc(C(F)(F)F)cc2)o1
Second: Cc1ccc(CNC(=O)Cn2nnc(C(=O)NCc3ccc(F)cc3)c2N)cc1
The “% Inhibition @ 10 uM” value of the first is higher: -1.41% for the first, -3.35% for the second.

Going from `C=CCC1(O)c2ccccc2C(=O)c2c(O)ccc(O)c21` (centres unmarked) to `CCc1ccccc1NC(=O)CN(c1c(C)cccc1C)S(C)(=O)=O`, the “% Inhibition @ 10 uM” value rises from -3.57% to -0.297%.

Going from `Cc1c(Cl)c(C(F)(F)F)nn1CC(=O)NC(C)C` to `CC1CCCN(C(=O)c2ccc(Cl)cc2Cl)C1` (centres unmarked), the “% Inhibition @ 10 uM” value falls from 2.16% to -2.6%.

First: N#CCNC(=O)C(CS(=O)(=O)Cc1ccccc1)c1cccc(-c2ccccc2)c1 (centres unmarked)
Second: CCCCNS(=O)(=O)c1cc(-c2nnc(O)c3ccccc23)ccc1C
The “% Inhibition @ 10 uM” value of the first is lower: -6.98% for the first, -2.65% for the second.

Going from `COc1ccc(C)cc1N(CC(=O)NC1CC2CCC1C2)S(=O)(=O)c1ccc(C)cc1` (centres unmarked) to `COc1ccc(CN(C(=O)c2cccc(C)c2)C2CCS(=O)(=O)C2)cc1` (centres unmarked), the “% Inhibition @ 10 uM” value falls from 1.62% to -1.18%.

Compared with `NC(=O)C1CCCN(CCc2ccccc2)C1` (centres unmarked), `O=C(NCCC1=CCCCC1)c1cc(-c2ccccc2)c(N2CCOCC2)s1` is higher in “% Inhibition @ 10 uM” value: -0.0494% for the first, 0.708% for the second.

Going from `COc1cc(CN(C)C)c(O)c(CN(C)C)c1` to `COc1ccc(C(=O)Nc2ccc(F)cc2)c(OC)c1`, the “% Inhibition @ 10 uM” value falls from 6.89% to 2.65%.

Going from `Cc1ccccc1CCNCc1c(C(=O)O)c(C)n(Cc2ccccc2F)c1C` to `COc1ccc(C2C3=C(O)CC(C)(C)CC3=NC(C)=C2C(=O)N2CCCCC2)cc1Br` (centres unmarked), the “% Inhibition @ 10 uM” value rises from 1.21% to 5.66%.

Compared with `O=C(NC1C2CC3CC(C2)CC1C3)c1cccc(Cl)c1` (centres unmarked), `CN1CCN(Cc2nnc(S)n2-c2cccc(F)c2)CC1` is lower in “% Inhibition @ 10 uM” value: 13.2% for the first, 0.986% for the second.
